The supplement of paper PMC8728848
Some of the results follow.

Columns and labels:
Experiment in all cases: glycan array binding signal (z-score within array); higher = stronger binding
Conditions in all cases: glycan notation: IUPAC condensed, linker removed
[1] = biological target: Gal(b1-3)[Neu5Ac(a2-6)]GlcNAc(b1-6)Gal(b1-4)Glc
Outline: (§1)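 Glycan array data were curated from 3228 arrays in the Consortium for Functional Glycomics database and kept only where the protein sequence was available. Glycan names were converted to IUPAC-condensed notation, and columns mapping to the same glycan were averaged. The binding signal is a within-array Z-score, averaged across arrays of the same protein sequence at different concentrations or buffers and across linkers. Negative Z-scores can be read as non-binding.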

[2] = biological target: Gal(b1-3)[Neu5Ac(b2-6)]GalNAc
Outline: as §1

Gal(b1-4)Gal = biological target: Gal(b1-4)Gal
Outline: as §1

[3] = biological target: Gal(b1-4)GalNAc(a1-3)[Fuc(a1-2)]Gal(b1-4)GlcNAc
Outline: as §1

[4] = biological target: Gal(b1-4)GalNAc(b1-3)[Fuc(a1-2)]Gal(b1-4)GlcNAc
Outline: as §1

Gal(b1-4)Glc = biological target: Gal(b1-4)Glc
Outline: as §1

Gal(b1-4)Glc6S = biological target: Gal(b1-4)Glc6S
Outline: as §1

Gal(b1-4)GlcNAc = biological target: Gal(b1-4)GlcNAc
Outline: as §1

[5] = biological target: Gal(b1-4)GlcNAc(a1-6)Gal(b1-4)GlcNAc
Outline: as §1

Gal(b1-4)GlcNAc(b1-2)Man = biological target: Gal(b1-4)GlcNAc(b1-2)Man
Outline: as §1

[6] = biological target: Gal(b1-4)GlcNAc(b1-2)Man(a1-3)Man(b1-4)GlcNAc(b1-4)GlcNAc
Outline: as §1

[7] = biological target: Gal(b1-4)GlcNAc(b1-2)Man(a1-3)[Gal(b1-4)GlcNAc(b1-2)Man(a1-6)]Man(b1-4)GlcNAc(b1-4)GlcNAc
Outline: as §1

[8] = biological target: Gal(b1-4)GlcNAc(b1-2)Man(a1-3)[Gal(b1-4)GlcNAc(b1-2)Man(a1-6)]Man(b1-4)GlcNAc(b1-4)[Fuc(a1-6)]GlcNAc
Outline: as §1

[9] = biological target: Gal(b1-4)GlcNAc(b1-2)Man(a1-3)[Gal(b1-4)GlcNAc(b1-2)Man(a1-6)][Gal(b1-4)GlcNAc(b1-4)]Man(b1-4)GlcNAc(b1-4)[Fuc(a1-6)]GlcNAc
Outline: as §1

[10] = biological target: Gal(b1-4)GlcNAc(b1-2)Man(a1-3)[Gal(b1-4)GlcNAc(b1-2)Man(a1-6)][GlcNAc(b1-4)]Man(b1-4)GlcNAc(b1-4)[Fuc(a1-6)]GlcNAc
Outline: as §1

[11] = biological target: Gal(b1-4)GlcNAc(b1-2)Man(a1-3)[GlcNAc(b1-2)Man(a1-6)]Man(b1-4)GlcNAc(b1-4)GlcNAc
Outline: as §1

[12] = biological target: Gal(b1-4)GlcNAc(b1-2)Man(a1-3)[GlcNAc(b1-4)][Gal(b1-4)GlcNAc(b1-2)Man(a1-6)]Man(b1-4)GlcNAc(b1-4)GlcNAc
Outline: as §1

[13] = biological target: Gal(b1-4)GlcNAc(b1-2)Man(a1-3)[Man(a1-6)]Man(b1-4)GlcNAc(b1-4)GlcNAc
Outline: as §1

[14] = biological target: Gal(b1-4)GlcNAc(b1-2)Man(a1-6)Man(b1-4)GlcNAc(b1-4)GlcNAc
Outline: as §1

[15] = biological target: Gal(b1-4)GlcNAc(b1-2)Man(a1-6)[GlcNAc(b1-2)Man(a1-3)]Man(b1-4)GlcNAc(b1-4)GlcNAc
Outline: as §1

[16] = biological target: Gal(b1-4)GlcNAc(b1-2)Man(a1-6)[Man(a1-3)]Man(b1-4)GlcNAc(b1-4)GlcNAc
Outline: as §1

[17] = biological target: Gal(b1-4)GlcNAc(b1-2)[Gal(b1-4)GlcNAc(b1-4)]Man(a1-3)[Gal(b1-4)GlcNAc(b1-2)Man(a1-6)]Man(b1-4)GlcNAc(b1-4)GlcNAc
Outline: as §1

B1: NPA (Narcissus pseudonarcissus), C0HM45 (protein)
chain: DNILYSGETLSPGEFLNNGRYVFIMQEDCNLVLYDVDKPIWATNTGGLDRRCHLSMQSDGNLVVYSPRNNPIWASNTGGENGNYVCVLQKDRNVVIYGTARWATGTNIH
Question: Which results are given for B1?
Answer: glycan array binding signal (z-score) [1]: -0.206; glycan array binding signal (z-score) [2]: -0.157; glycan array binding signal (z-score) (Gal(b1-4)Gal): -0.147; glycan array binding signal (z-score) [3]: -0.156; glycan array binding signal (z-score) [4]: -0.154; glycan array binding signal (z-score) (Gal(b1-4)Glc): -0.145; glycan array binding signal (z-score) (Gal(b1-4)Glc6S): -0.151; glycan array binding signal (z-score) (Gal(b1-4)GlcNAc): -0.148; glycan array binding signal (z-score) [5]: -0.143; glycan array binding signal (z-score) (Gal(b1-4)GlcNAc(b1-2)Man): -0.142; glycan array binding signal (z-score) [6]: 0.122; glycan array binding signal (z-score) [7]: 0.602; glycan array binding signal (z-score) [8]: -0.122; glycan array binding signal (z-score) [9]: -0.143; glycan array binding signal (z-score) [10]: -0.153; glycan array binding signal (z-score) [11]: 0.095; glycan array binding signal (z-score) [12]: -0.138; glycan array binding signal (z-score) [13]: 1.71; glycan array binding signal (z-score) [14]: -0.144; glycan array binding signal (z-score) [15]: -0.028; glycan array binding signal (z-score) [16]: 3.12; glycan array binding signal (z-score) [17]: -0.119
